One molecule from patent US20260250363A1 (AP BIOSCIENCES, published 2026) can be followed below.

In assay [1] the target is T1, SARS-CoV-2 B.1.1.529 Spike Protein (Omicron) (SARS-CoV-2). As to the kind of experiment: competition ELISA: blocks biotin-ACE2 binding to coated spike. (In an ELISA, binding on a coated surface is turned into a signal by an enzyme label.)
For assay [2], the target named is T2, SARS-CoV-2 B.1.617.2 Spike Protein (R&D, Cat. #10878-CV) (SARS-CoV-2). In words: BLI (ForteBio), mAb on AHC sensor, spike in solution. In general terms: Biolayer interferometry detects binding as a change in optical thickness at a sensor tip.
The target of assay [3] is T1, SARS-CoV-2 B.1.1.529 Spike Protein …. Described as above.
Assay [4] addresses Recombinant SARS-CoV-2 BA.2 Spike (GCN4-IZ) His Protein, CF (R&D, 11109-CV) (SARS-CoV-2). The description is as above.
The target of assay [5] is T2, SARS-CoV-2 B.1.617.2 Spike Protein …. As to the kind of experiment: competition ELISA: blocks biotin-ACE2 binding to coated spike.
Assay [6] shares this target. In words: direct ELISA on coated spike.

B1: anti-SARS-CoV-2 antibody clone R4-1a-51 (antibody, V domains shown)
VH: [about 100 residues left out here]GYMDYWGQGTPVTVSS
VL: QSVLTQPPSASGTPGQRVTISCSGSSSNIGSSTVNWYQQLPETAPKLLIYSNHQRPSGVPDRFSGSKSGTSASLALSGLQSEDEAEYYCAAWDDSLNGVVFGGGTKLTVLG
In the case of B1, the half-inhibitory concentration (IC50) in assay [1] came to 4.86 nM; in assay [5], 2.99 nM. Also, the figures for the dissociation constant (Kd) in assay [2], in assay [3] and in assay [4] were 4.13 nM, 3.49 nM and 10.3 nM, respectively. The response in assay [6] was half-maximal at 0.104 nM (EC50).

What is called IC50 is the point on the concentration scale where inhibition reaches its midpoint. What is called Kd is the free concentration of one partner at which half of the binding sites on the other are occupied at equilibrium, for simple one-to-one binding. In general, EC50 refers to the concentration at which the effect is half-maximal. High values mean a less potent agent, low ones a more potent agent.
